# PMC12041881, “Tailored phenyl ureas eradicate drug-resistant Mycobacterium tuberculosis by targeting mycolic acid cell wall assembly” (Chemical Science, 2025)
# Columns and labels:
# Format in all cases: binding
# [1] = molecular target: probe-bound proteins in M. tuberculosis H37Ra cells (Mycobacterium tuberculosis, UniProt P9WKN3); details: protein Rv0955 (P9WKN3, Uncharacterized protein Rv0955); 5µM vs noUV
# [2] = molecular target: probe-bound proteins in M. tuberculosis H37Ra cells (Mycobacterium tuberculosis, UniProt P9WIP9); details: protein hbhA (P9WIP9, Heparin-binding hemagglutinin); 5µM vs noUV
# Chain of UniProt P9WIP9 (P9WIP9 whole entry): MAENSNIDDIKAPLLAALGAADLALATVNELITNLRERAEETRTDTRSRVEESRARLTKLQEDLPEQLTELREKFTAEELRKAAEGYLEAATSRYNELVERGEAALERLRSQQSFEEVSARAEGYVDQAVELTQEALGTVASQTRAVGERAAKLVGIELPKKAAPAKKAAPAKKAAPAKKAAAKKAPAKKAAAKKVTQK
# [3] = molecular target: probe-bound proteins in M. tuberculosis H37Ra cells (Mycobacterium tuberculosis, UniProt P9WHR1); details: protein rip3 (P9WHR1, Putative zinc metalloprotease Rip3); 5µM vs noUV
# Chain of UniProt P9WHR1 (P9WHR1 whole entry): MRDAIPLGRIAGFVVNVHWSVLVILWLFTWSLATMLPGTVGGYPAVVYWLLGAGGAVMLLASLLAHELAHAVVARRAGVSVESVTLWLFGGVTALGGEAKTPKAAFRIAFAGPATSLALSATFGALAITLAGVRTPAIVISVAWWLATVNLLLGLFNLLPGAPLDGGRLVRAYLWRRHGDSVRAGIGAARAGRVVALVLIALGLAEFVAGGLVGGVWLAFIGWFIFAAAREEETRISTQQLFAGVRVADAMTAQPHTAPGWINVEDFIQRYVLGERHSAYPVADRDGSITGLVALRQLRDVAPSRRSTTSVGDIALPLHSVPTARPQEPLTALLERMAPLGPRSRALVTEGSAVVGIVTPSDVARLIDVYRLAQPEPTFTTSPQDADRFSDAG
# [4] = molecular target: probe-bound proteins in M. tuberculosis H37Ra cells (Mycobacterium tuberculosis, UniProt P9WM71); details: protein Rv0090 (P9WM71, Uncharacterized protein Rv0090); 5µM vs noUV
# Chain of UniProt P9WM71 (P9WM71 whole entry): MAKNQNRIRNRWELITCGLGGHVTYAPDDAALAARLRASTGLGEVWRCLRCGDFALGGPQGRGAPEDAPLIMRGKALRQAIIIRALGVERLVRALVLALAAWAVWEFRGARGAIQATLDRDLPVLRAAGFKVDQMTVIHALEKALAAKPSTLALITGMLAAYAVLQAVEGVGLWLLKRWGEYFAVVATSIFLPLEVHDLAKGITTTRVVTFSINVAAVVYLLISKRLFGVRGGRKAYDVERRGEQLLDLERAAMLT
# [5] = molecular target: probe-bound proteins in M. tuberculosis H37Ra cells (Mycobacterium tuberculosis, UniProt P9WQH7); details: protein accD5 (P9WQH7, Biotin-dependent acetyl-/propionyl-coenzyme A carboxylase beta5 subunit); 5µM vs noUV
# [6] = molecular target: probe-bound proteins in M. tuberculosis H37Ra cells (Mycobacterium tuberculosis, UniProt P9WMR7); details: protein Rv1341 (P9WMR7, dITP/XTP pyrophosphatase); 5µM vs noUV
# [7] = molecular target: probe-bound proteins in M. tuberculosis H37Ra cells (Mycobacterium tuberculosis, UniProt O06139); details: protein cydB (O06139); 5µM vs noUV
# [8] = test system: probe-bound proteins in M. tuberculosis H37Ra cells; details: 5µM vs noUV
# [9] = molecular target: probe-bound proteins in M. tuberculosis H37Ra cells (Mycobacterium tuberculosis, UniProt P9WJX5); details: protein Rv0849 (P9WJX5, Uncharacterized MFS-type transporter Rv0849); 5µM vs noUV
# [10] = molecular target: probe-bound proteins in M. tuberculosis H37Ra cells (Mycobacterium tuberculosis, UniProt P9WJV5); details: for MmpL3 enrichment, Student's T-test Difference DM-JB-68 -5µM vs noUV: 5 µM probe vs UV-control, Mtb H37Ra
# Chain of UniProt P9WJV5 (P9WJV5 whole entry): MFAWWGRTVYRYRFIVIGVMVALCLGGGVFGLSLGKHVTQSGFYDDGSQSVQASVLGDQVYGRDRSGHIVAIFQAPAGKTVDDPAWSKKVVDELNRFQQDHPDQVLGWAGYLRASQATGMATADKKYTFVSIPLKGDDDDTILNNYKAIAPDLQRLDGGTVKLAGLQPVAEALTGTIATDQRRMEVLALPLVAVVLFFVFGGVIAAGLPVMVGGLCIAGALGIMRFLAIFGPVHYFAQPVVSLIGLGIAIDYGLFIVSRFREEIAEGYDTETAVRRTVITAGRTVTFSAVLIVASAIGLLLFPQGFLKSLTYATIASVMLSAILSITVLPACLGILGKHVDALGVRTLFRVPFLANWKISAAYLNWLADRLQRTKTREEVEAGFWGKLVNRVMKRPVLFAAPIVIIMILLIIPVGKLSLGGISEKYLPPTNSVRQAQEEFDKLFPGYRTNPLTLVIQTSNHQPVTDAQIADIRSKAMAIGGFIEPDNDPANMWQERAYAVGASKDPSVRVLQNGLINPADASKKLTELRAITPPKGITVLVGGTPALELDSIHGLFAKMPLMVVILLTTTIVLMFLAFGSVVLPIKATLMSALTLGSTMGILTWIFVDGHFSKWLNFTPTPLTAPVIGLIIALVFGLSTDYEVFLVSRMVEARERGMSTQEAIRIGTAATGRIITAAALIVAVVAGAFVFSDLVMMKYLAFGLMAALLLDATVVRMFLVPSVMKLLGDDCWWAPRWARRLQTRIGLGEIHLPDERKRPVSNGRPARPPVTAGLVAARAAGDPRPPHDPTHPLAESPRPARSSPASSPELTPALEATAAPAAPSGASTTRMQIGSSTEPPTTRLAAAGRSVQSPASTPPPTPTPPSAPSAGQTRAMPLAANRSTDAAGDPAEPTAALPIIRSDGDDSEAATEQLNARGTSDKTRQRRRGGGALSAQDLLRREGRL
# [11] = molecular target: probe-bound proteins in M. tuberculosis H37Ra cells (Mycobacterium tuberculosis, UniProt P9WKQ7); details: protein Rv0883c (P9WKQ7, Uncharacterized protein Rv0883c); 5µM vs noUV
# Chain of UniProt P9WKQ7 (P9WKQ7 whole entry): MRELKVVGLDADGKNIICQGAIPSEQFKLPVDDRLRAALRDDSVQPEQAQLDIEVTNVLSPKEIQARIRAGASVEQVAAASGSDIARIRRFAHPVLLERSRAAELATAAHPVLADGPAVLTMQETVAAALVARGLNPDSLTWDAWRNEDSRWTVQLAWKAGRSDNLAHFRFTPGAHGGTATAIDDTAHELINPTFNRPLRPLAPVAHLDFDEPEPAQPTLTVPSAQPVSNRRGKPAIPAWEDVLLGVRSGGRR
# [12] = molecular target: probe-bound proteins in M. tuberculosis H37Ra cells (Mycobacterium tuberculosis, UniProt O53578); details: protein accD4 (O53578); 5µM vs noUV
# Chain of UniProt O53578 (O53578 whole entry): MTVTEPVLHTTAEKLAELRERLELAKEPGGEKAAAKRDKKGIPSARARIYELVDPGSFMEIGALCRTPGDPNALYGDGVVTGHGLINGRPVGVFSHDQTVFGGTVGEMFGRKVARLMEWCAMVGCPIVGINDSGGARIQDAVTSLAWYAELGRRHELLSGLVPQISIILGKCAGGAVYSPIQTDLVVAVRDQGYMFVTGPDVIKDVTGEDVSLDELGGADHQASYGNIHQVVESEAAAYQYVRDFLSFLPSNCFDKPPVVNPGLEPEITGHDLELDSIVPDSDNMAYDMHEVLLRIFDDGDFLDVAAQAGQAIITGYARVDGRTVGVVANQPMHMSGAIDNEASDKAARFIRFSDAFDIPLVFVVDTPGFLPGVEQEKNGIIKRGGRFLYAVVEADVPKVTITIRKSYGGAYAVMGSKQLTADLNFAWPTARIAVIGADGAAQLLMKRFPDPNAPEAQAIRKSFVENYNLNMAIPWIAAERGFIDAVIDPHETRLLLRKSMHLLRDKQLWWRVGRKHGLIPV
# [13] = molecular target: probe-bound proteins in M. tuberculosis H37Ra cells (Mycobacterium tuberculosis, UniProt P9WP63); details: protein crcB1 (P9WP63, Putative fluoride ion transporter CrcB 1); 5µM vs noUV
# Chain of UniProt P9WP63 (P9WP63 whole entry): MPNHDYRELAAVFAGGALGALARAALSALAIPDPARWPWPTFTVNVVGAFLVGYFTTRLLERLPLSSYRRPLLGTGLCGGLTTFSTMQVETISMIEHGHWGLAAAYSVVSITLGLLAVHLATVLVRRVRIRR
# [14] = molecular target: probe-bound proteins in M. tuberculosis H37Ra cells (Mycobacterium tuberculosis, UniProt P9WIT3); details: protein Rv1771 (P9WIT3, L-gulono-1,4-lactone dehydrogenase); 5µM vs noUV
# [15] = molecular target: probe-bound proteins in M. tuberculosis H37Ra cells (Mycobacterium tuberculosis, UniProt P9WJV1); details: protein mmpL5 (P9WJV1, Siderophore exporter MmpL5); 5µM vs noUV
# [16] = molecular target: probe-bound proteins in M. tuberculosis H37Ra cells (Mycobacterium tuberculosis, UniProt P9WKF5); details: protein adk (P9WKF5, Adenylate kinase); 5µM vs noUV
# Chain of UniProt P9WKF5 (P9WKF5 whole entry): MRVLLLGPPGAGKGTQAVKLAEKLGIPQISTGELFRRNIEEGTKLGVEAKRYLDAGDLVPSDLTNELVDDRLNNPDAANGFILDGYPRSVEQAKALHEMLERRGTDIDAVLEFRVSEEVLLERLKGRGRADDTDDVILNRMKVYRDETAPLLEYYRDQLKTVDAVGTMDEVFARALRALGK
# [17] = molecular target: probe-bound proteins in M. tuberculosis H37Ra cells (Mycobacterium tuberculosis, UniProt P9WKL9); details: protein Rv0968 (P9WKL9, Uncharacterized protein Rv0968); 5µM vs noUV
# [18] = molecular target: probe-bound proteins in M. tuberculosis H37Ra cells (Mycobacterium tuberculosis, UniProt P9WMS9)
# Chain of UniProt P9WMS9 (P9WMS9 whole entry): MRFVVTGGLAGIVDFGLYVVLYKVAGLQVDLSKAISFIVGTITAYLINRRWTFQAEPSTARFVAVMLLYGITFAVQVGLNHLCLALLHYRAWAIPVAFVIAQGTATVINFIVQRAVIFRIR
# [19] = molecular target: probe-bound proteins in M. tuberculosis H37Ra cells (Mycobacterium tuberculosis, UniProt P9WIW1); details: protein nuoL (P9WIW1, NADH-quinone oxidoreductase subunit L); 5µM vs noUV
# Chain of UniProt P9WIW1 (P9WIW1 whole entry): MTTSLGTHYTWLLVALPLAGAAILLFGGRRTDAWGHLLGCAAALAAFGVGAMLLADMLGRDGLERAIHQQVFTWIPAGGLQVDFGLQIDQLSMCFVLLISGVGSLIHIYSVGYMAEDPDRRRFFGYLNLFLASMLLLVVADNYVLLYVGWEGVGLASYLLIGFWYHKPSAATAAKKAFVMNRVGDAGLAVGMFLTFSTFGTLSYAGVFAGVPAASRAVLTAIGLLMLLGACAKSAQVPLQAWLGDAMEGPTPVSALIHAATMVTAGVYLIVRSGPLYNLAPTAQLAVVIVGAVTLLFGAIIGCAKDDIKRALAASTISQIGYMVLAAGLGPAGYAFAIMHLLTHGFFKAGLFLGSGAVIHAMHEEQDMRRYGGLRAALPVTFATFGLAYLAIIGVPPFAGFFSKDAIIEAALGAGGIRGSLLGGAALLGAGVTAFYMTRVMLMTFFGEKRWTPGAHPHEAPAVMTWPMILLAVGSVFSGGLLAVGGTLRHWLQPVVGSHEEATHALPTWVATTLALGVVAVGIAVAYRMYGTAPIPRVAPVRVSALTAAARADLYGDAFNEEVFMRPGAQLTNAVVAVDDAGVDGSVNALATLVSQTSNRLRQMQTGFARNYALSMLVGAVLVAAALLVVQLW
# [20] = molecular target: probe-bound proteins in M. tuberculosis H37Ra cells (Mycobacterium tuberculosis, UniProt P9WQN3); details: protein ftsH (P9WQN3, ATP-dependent zinc metalloprotease FtsH); 5µM vs noUV
# Chain of UniProt P9WQN3 (P9WQN3 whole entry): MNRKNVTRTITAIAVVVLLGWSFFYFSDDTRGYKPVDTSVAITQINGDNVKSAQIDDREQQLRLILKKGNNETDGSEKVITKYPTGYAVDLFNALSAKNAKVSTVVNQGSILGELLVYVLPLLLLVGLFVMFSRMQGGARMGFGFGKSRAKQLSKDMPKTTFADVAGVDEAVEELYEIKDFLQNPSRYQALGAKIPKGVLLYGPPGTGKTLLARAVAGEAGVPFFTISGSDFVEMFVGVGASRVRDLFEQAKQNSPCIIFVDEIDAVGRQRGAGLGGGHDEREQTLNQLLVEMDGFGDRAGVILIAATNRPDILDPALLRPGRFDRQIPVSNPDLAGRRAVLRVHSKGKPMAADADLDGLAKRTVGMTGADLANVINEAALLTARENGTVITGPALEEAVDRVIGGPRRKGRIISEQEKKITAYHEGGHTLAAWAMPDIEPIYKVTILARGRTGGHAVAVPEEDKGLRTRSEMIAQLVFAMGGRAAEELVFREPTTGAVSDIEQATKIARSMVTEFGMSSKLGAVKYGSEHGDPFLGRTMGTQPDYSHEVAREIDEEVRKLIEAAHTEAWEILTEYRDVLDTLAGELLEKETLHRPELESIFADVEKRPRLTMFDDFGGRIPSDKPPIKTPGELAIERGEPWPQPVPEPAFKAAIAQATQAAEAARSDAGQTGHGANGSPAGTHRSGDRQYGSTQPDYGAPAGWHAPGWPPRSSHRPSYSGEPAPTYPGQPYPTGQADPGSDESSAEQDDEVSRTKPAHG
# [21] = molecular target: probe-bound proteins in M. tuberculosis H37Ra cells (Mycobacterium tuberculosis, UniProt O53896); details: protein pepD (O53896); 5µM vs noUV
# Chain of UniProt O53896 (O53896 whole entry): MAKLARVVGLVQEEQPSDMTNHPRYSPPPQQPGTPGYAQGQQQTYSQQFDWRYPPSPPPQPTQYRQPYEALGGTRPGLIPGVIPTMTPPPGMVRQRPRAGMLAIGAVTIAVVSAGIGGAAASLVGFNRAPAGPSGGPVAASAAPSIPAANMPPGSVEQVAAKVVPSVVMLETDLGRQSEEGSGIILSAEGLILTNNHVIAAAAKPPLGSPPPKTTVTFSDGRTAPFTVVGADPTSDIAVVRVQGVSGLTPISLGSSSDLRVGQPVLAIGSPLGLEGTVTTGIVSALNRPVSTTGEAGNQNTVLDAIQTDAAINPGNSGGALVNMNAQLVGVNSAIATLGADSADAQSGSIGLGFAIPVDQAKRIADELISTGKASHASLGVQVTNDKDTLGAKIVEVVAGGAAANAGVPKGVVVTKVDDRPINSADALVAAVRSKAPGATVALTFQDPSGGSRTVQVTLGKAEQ
# [22] = molecular target: probe-bound proteins in M. tuberculosis H37Ra cells (Mycobacterium tuberculosis, UniProt P9WQA7); details: protein Rv2298 (P9WQA7, Uncharacterized oxidoreductase Rv2298); 5µM vs noUV
compound,measurement,setting,value
C#CC1(NC(=O)Nc2ccc(N=[N+]=[N-])cc2)CCCCC1 [Compound 227-p1],Student's T-test Difference DM-JB-68 -5µM_DM-JB-68 -5µM_noUV,[1],0.1139
same,Student's T-test Difference DM-JB-68 -5µM_DM-JB-68 -5µM_noUV,[2],0.1815
same,Student's T-test Difference DM-JB-68 -5µM_DM-JB-68 -5µM_noUV,[3],0.7916
same,Student's T-test Difference DM-JB-68 -5µM_DM-JB-68 -5µM_noUV,[4],-0.4232
same,Student's T-test Difference DM-JB-68 -5µM_DM-JB-68 -5µM_noUV,[5],0.6026
same,Student's T-test Difference DM-JB-68 -5µM_DM-JB-68 -5µM_noUV,[6],0.7533
same,Student's T-test Difference DM-JB-68 -5µM_DM-JB-68 -5µM_noUV,[7],0.6362
same,Student's T-test Difference DM-JB-68 -5µM_DM-JB-68 -5µM_noUV,[8]; protein Rv0077c (O53622),0.3224
same,Student's T-test Difference DM-JB-68 -5µM_DM-JB-68 -5µM_noUV,[8]; protein Rv0133 (P96810),-1.444
same,Student's T-test Difference DM-JB-68 -5µM_DM-JB-68 -5µM_noUV,[8]; protein Rv0180c (O07424),0.9316
same,Student's T-test Difference DM-JB-68 -5µM_DM-JB-68 -5µM_noUV,[8]; protein Rv0464c (O53749),0.005203
same,Student's T-test Difference DM-JB-68 -5µM_DM-JB-68 -5µM_noUV,[8]; protein Rv0473 (I6Y3V3),0.7437
same,Student's T-test Difference DM-JB-68 -5µM_DM-JB-68 -5µM_noUV,[8]; protein Rv1072 (O53420),-0.1783
same,Student's T-test Difference DM-JB-68 -5µM_DM-JB-68 -5µM_noUV,[8]; protein Rv1231c (O86314),0.1051
same,Student's T-test Difference DM-JB-68 -5µM_DM-JB-68 -5µM_noUV,[8]; protein Rv1456c (O53148),0.3985
same,Student's T-test Difference DM-JB-68 -5µM_DM-JB-68 -5µM_noUV,[8]; protein Rv1457c (O86349),0.6268
same,Student's T-test Difference DM-JB-68 -5µM_DM-JB-68 -5µM_noUV,[8]; protein Rv1487 (P71767),-0.313
same,Student's T-test Difference DM-JB-68 -5µM_DM-JB-68 -5µM_noUV,[8]; protein Rv1489 (L7N692),-0.07504
same,Student's T-test Difference DM-JB-68 -5µM_DM-JB-68 -5µM_noUV,[8]; protein Rv1749c (O65935),0.7725
same,Student's T-test Difference DM-JB-68 -5µM_DM-JB-68 -5µM_noUV,[8]; protein Rv1924c (P95289),0.8512
same,Student's T-test Difference DM-JB-68 -5µM_DM-JB-68 -5µM_noUV,[8]; protein Rv2037c (L0TB61),0.6902
same,Student's T-test Difference DM-JB-68 -5µM_DM-JB-68 -5µM_noUV,[8]; protein Rv3092c (I6Y2I9),0.2645
same,Student's T-test Difference DM-JB-68 -5µM_DM-JB-68 -5µM_noUV,[8]; protein Rv3269 (P96874),0.7618
same,Student's T-test Difference DM-JB-68 -5µM_DM-JB-68 -5µM_noUV,[8]; protein Rv3295 (P96900),0.9642
same,Student's T-test Difference DM-JB-68 -5µM_DM-JB-68 -5µM_noUV,[8]; protein Rv3312c (O53363),0.03856
same,Student's T-test Difference DM-JB-68 -5µM_DM-JB-68 -5µM_noUV,[8]; protein Rv3327 (O53377),-0.9266
same,Student's T-test Difference DM-JB-68 -5µM_DM-JB-68 -5µM_noUV,"[8]; protein Rv3365c (Q93IG6, Conserved protein)",0.4576
same,Student's T-test Difference DM-JB-68 -5µM_DM-JB-68 -5µM_noUV,[8]; protein Rv3463 (I6X7D4),-0.1981
same,Student's T-test Difference DM-JB-68 -5µM_DM-JB-68 -5µM_noUV,[8]; protein Rv3519 (O53564),-0.5336
same,Student's T-test Difference DM-JB-68 -5µM_DM-JB-68 -5µM_noUV,[8]; protein Rv3587c (O53572),0.8256
same,Student's T-test Difference DM-JB-68 -5µM_DM-JB-68 -5µM_noUV,[8]; protein Rv3629c (O06378),0.1476
same,Student's T-test Difference DM-JB-68 -5µM_DM-JB-68 -5µM_noUV,[8]; protein Rv3669 (O69637),0.8695
same,Student's T-test Difference DM-JB-68 -5µM_DM-JB-68 -5µM_noUV,[8]; protein Rv3689 (I6YCR8),0.08224
same,Student's T-test Difference DM-JB-68 -5µM_DM-JB-68 -5µM_noUV,[8]; protein Rv3779 (P72045),0.07224
same,Student's T-test Difference DM-JB-68 -5µM_DM-JB-68 -5µM_noUV,[8]; protein chaA (O53910),-0.6885
same,Student's T-test Difference DM-JB-68 -5µM_DM-JB-68 -5µM_noUV,[8]; protein echA21 (P75019),0.5863
same,Student's T-test Difference DM-JB-68 -5µM_DM-JB-68 -5µM_noUV,[9],0.01259
same,"MmpL3 enrichment, Student's T-test Difference DM-JB-68 -5µM vs noUV",[10],could not be enriched
same,"MmpL3 enrichment, Student's T-test Difference DM-JB-68 -5µM vs noUV",[10]; listed as DM-JB-68,-0.05077
same,Student's T-test Difference DM-JB-68 -5µM_DM-JB-68 -5µM_noUV,"[10]; protein mmpL3 (P9WJV5, Trehalose monomycolate exporter MmpL3), 5µM vs noUV",-0.05077
same,Student's T-test Difference DM-JB-68 -5µM_DM-JB-68 -5µM_noUV,[11],-1.1407
same,Student's T-test Difference DM-JB-68 -5µM_DM-JB-68 -5µM_noUV,[12],0.3579
same,Student's T-test Difference DM-JB-68 -5µM_DM-JB-68 -5µM_noUV,[13],0.4201
same,Student's T-test Difference DM-JB-68 -5µM_DM-JB-68 -5µM_noUV,[14],-0.2815
same,Student's T-test Difference DM-JB-68 -5µM_DM-JB-68 -5µM_noUV,[15],0.3913
same,Student's T-test Difference DM-JB-68 -5µM_DM-JB-68 -5µM_noUV,[16],0.8044
same,Student's T-test Difference DM-JB-68 -5µM_DM-JB-68 -5µM_noUV,[17],0.6741
same,Student's T-test Difference DM-JB-68 -5µM_DM-JB-68 -5µM_noUV,[18],0.2296
same,Student's T-test Difference DM-JB-68 -5µM_DM-JB-68 -5µM_noUV,[19],0.1604
same,Student's T-test Difference DM-JB-68 -5µM_DM-JB-68 -5µM_noUV,[20],0.7121
same,Student's T-test Difference DM-JB-68 -5µM_DM-JB-68 -5µM_noUV,[21],0.4742
same,Student's T-test Difference DM-JB-68 -5µM_DM-JB-68 -5µM_noUV,[22],-0.1827

# Where two headings read alike, the source gives them in different places.
